# The supplement of paper PMC3334620
# Whole data set: some 33,000 sequences, median “E-score (-0.5 to 0.5)” near -0.013, cut for the highest 2% near 0.3. The list shows a part of the results.
# Target: T1, Msn1 (UniProt P22148)
# T1 sequence: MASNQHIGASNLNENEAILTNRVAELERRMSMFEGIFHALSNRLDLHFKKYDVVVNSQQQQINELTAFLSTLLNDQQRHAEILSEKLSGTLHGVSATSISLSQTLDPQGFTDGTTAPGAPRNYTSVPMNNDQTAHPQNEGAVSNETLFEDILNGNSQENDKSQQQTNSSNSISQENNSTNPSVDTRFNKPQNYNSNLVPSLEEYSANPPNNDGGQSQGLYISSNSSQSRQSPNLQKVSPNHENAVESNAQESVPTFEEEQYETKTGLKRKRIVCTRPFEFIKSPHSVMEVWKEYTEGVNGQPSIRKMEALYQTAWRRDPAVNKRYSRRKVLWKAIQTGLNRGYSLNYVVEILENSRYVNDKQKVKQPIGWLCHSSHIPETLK
# Assay: PBM E-score (8-mer binding enrichment) (E-score (-0.5 to 0.5)); higher = stronger / more preferred TF binding; most listed sequences are background and not binding sites
# Conditions: protein concentration: 200 nM; construct: GST-full length
# How it was run: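 Yeast transcription factors, full-length or as DNA-binding domains, were expressed with a GST tag using PURExpress in vitro transcription/translation. At about 100-200 nM they were applied to universal all-10-mer Agilent arrays, double-stranded by primer extension on fresh or once-stripped slides. Fluorescent anti-GST detected bound protein, and masliner normalised the scans. E-scores for ungapped eight-base words, pooled with reverse complements, came from the Universal PBM Analysis Suite.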
row,Sequence,PBM E-score
1,ACGCCACG,-0.267
2,GACACACA,0.252
3,ATCCGCCC,-0.16
4,CCGCCAGA,-0.0748
5,ACACTGTG,-0.158
6,TCCGAACA,0.125
7,AAAGGGGA,-0.155
8,ACACGCAC,-0.0554
9,CGCGCGAC,0.0519
10,GGCGCGAA,0.0134
11,ATATATTA,0.207
12,GTGAACAC,-0.108
13,AGTGACCA,-0.0538
14,TCTTAGCA,0.0404
15,AGTAAGTG,-0.14
16,TCGTTAGA,-0.144
17,ACAACATG,0.0414
18,AGTTCTAT,0.00633
19,ATGCGGAG,-0.00178
20,ACGAGTGA,-0.222
21,CTGTTGGC,-0.138
22,TGTTAGAA,-0.0208
23,ACACCTAT,0.0304
24,GGCTGGGA,-0.21
25,GTATAAAA,0.288

row,Sequence,PBM E-score
1,GCCTCTCA,-0.25
2,CATCCCGA,0.0979
3,GGTTTCAC,-0.0106
4,GTAACTTA,-0.0611
5,CCCAGGCA,-0.0743
6,AACGGCCG,0.142
7,AACCTCTC,-0.312
8,AGACGTAC,0.0857
9,CCGTGAGG,-0.283
10,CGATACTC,-7e-05
11,CGCCGTGC,-0.0986
12,ACATTTAG,0.279
13,TCGATCGA,0.045
14,GATAGGTA,0.142
15,GCTCGCGA,0.0813
16,AATCCTGG,-0.0714
17,GATATCTA,-0.0906
18,CATCGCCA,0.106
19,AAACCCTT,0.121
20,AACTGGCC,-0.00151
21,CCAAGATA,0.0653
22,AGCGTTAT,-0.0134
23,ACGATGTC,0.275
24,CATGCCAG,-0.212
25,GAAGGTGC,-0.167

row,Sequence,PBM E-score
1,GTTCTCTA,0.0807
2,CGCTTAGA,-0.228
3,AGCGAACG,-0.274
4,ACGAATCG,0.0506
5,CGGTTGCA,-0.106
6,CGGAGCCG,-0.104
7,GATACAGA,0.124
8,ATCATGAG,-0.0171
9,GATACCTA,0.0926
10,ATTTCGCC,0.116
11,CGTTTCTA,0.109
12,CGGCTGAC,0.00649
13,CTTCTCGC,-0.0908
14,AGCTACAC,-0.0363
15,AGTGTTTG,0.1
16,TACTAGCA,0.062
17,TCCAGTAA,-0.0623
18,CCCACGAA,0.107
19,CTTAGGAC,0.269
20,ACTGACAC,0.0553
21,AAGGGAAT,-0.00497
22,ATTCCACC,0.189
23,GAGCCGAA,0.144
24,CAAGGCAG,-0.214
25,AGGCGTGA,-0.0733

row,Sequence,PBM E-score
1,CCTCAAGG,-0.109
2,TGGCGTAA,-0.29
3,CGATCCAC,-0.0959
4,ATGCAGGC,-0.112
5,AAAGAGGC,-0.142
6,CGTAATAA,-0.0315
7,TACAGCCA,-0.128
8,TTCCACAA,0.123
9,CGTATCGC,0.0984
10,CGCACTAA,0.17
11,ACGAGGAC,0.324
12,ATCGAAGA,0.0568
13,CTCCTCTC,-0.379
14,GCCCCCAC,-0.309
15,CTGAACGA,-0.0522
16,AAGTACCG,0.151
17,CACGCCTG,-0.169
18,CGCATTGC,0.0594
19,ATGCCGTA,0.0992
20,CGGATCAC,0.181
21,GCCTTACA,-0.25
22,AGTAAGCG,-0.082
23,AAGTTCTC,-0.0185
24,CCACCGTC,-0.324
25,TATGCTAA,-0.0132

row,Sequence,PBM E-score
1,AGACAGCC,-0.129
2,TATACGGA,0.128
3,CCCTTTAA,0.0255
4,CCATCCGC,-0.0442
5,AAGTTTGT,0.297
6,CTCTCTCA,-0.17
7,CATCTCAC,-5e-05
8,CTCCGGCC,-0.107
9,CACACACC,-0.0228
10,AACCGATC,-0.193
11,GTCACATA,0.0793
12,AGCACCAA,0.0195
13,AAGGATTG,0.191
14,ACATCGTG,0.123
15,GACCTTCC,-0.15
16,GACCGGTC,0.0716
17,GTATGTAA,0.0384
18,CACAATTA,0.128
19,ACACGGAC,0.32
20,CCCGTAAA,-0.0814
21,AGGCTCCA,-0.334
22,CATATTAG,0.193
23,ACATGGGA,0.162
24,GGCTTGTA,-0.0834
25,GCGGCCAA,-0.0597

row,Sequence,PBM E-score
1,ATTCCTGG,-0.0803
2,GAAGGGGA,-0.144
3,ATTACTAG,-0.127
4,CGTAGTTA,0.0295
5,ATCGGGAA,0.0406
6,CACGCGTG,0.0676
7,CCGATCAG,0.0559
8,TACCCAGA,-0.0576
9,ACGTTAAT,0.0889
10,CACCGAAC,0.0443
11,CCCCGTTC,-0.213
12,AACCGTAC,-0.044
13,GTAATCAC,0.00376
14,AGCGCACA,-0.144
15,GATAAGCC,-0.115
16,ACCCACCG,-0.131
17,CCGCTCCA,-0.179
18,AGGATCGC,0.0678
19,CGAGTACA,0.0998
20,GCAGGCAC,-0.252
21,ACGACCGT,-0.222
22,ACCAACAC,-0.0179
23,CCGTCCAA,0.0386
24,AGCGTTTG,0.0422
25,GGGCGGGA,0.106

row,Sequence,PBM E-score
1,CGGAGTGC,-0.0772
2,ACAGGGGT,-0.329
3,AGCAGCAA,0.0158
4,TCGGGCCA,-0.103
5,AACTCACA,0.0821
6,CCAACCAC,0.0536
7,ACTCTTTG,-0.0656
8,AGCTGCAC,-0.164
9,GACTCCAC,-0.324
10,ACTACCCT,-0.202
11,ACCCTTAA,-0.119
12,CTAAGAAA,0.228
13,GACGTCAC,0.0733
14,AAAAGGAT,0.26
15,ACCATAAC,-0.0245
16,CCTCTGTC,-0.12
17,CACGTAAA,-0.102
18,AGAAACAC,-0.0303
19,CCCGCTAC,-0.0742
20,ACTTACAT,-0.0555
21,AGGAGTAG,-0.0789
22,AGATAGGA,-0.111
